Consider 32 variants from the GPR68 mutational scans of Howard et al. (2025).

Sequences and labels used below:
B1: GPR68, Q15743 (parent)
chain: MGNITADNSSMSCTIDHTIHQTLAPVVYVTVLVVGFPANCLSLYFGYLQIKARNELGVYLCNLTVADLFYICSLPFWLQYVLQHDNWSHGDLSCQVCGILLYENIYISVGFLCCISVDRYLAVAHPFRFHQFRTLKAAVGVSVVIWAKELLTSIYFLMHEEVIEDENQHRVCFEHYPIQAWQRAINYYRFLVGFLFPICLLLASYQGILRAVRRSHGTQKSRKDQIQRLVLSTVVIFLACFLPYHVLLLVRSVWEASCDFAKGVFNAYHFSLLLTSFNCVADPVLYCFVSETTHRDLARLRGACLAFLTCSRTGRAREAYPLGAPEASGKSGAQGEEPELLTKLHPAFQTPNSPGSGGFPTGRLA

Variants of B1 are the subject of data set [1]. Briefly: cAMP reporter score (Enrich2 score, wild type = 0); higher = more signal; HEK293T, FACS bins.
In data set [2] the parent is B1. Description: surface expression score (Enrich2 score, wild type = 0); higher = more signal; HEK293T, FACS bins.

The least precise scores are not listed. Two further conditions of the source, in which the scores hardly spread, are not listed. Names with del lack the residues named; names with ins carry added residues between the positions named. For some of these results: The data file names ogerin without a concentration.

For the variant H175_Y176del, the cAMP reporter score in data set [1] (pH 5.5) was -1.63; in data set [1] (pH 6), -0.776; in data set [1] (pH 6.5, modulator: ogerin) it was -0.895. Besides, in data set [2], the surface expression score is -1.36.
For the variant E166Q, the cAMP reporter score in data set [1] (pH 5.5) was determined as 1.19; in data set [1] (pH 6), 0.489; in data set [1] (pH 6, modulator: ogerin), 1.13; in data set [1] (pH 6.5, modulator: ogerin) it was 0.456. Moreover, in data set [2], the surface expression score is 1.65.
In the same order, the values of E166W are 0.663, 0.013, -0.314, -0.566 and 1.3.
In the same order, the values of E166P are 0.869, 0.281, 1.15, 0.516 and 3.62.
For E166S the same measures were 0.45, -0.223, -0.007, -1.28 and -0.111.
In the case of E166F, the cAMP reporter score is 0.551 in data set [1] (pH 5.5); -0.236 in data set [1] (pH 6, modulator: ogerin); -1.36 in data set [1] (pH 6.5, modulator: ogerin). Further, the surface expression score in data set [2] was 0.515.
As for E166T, the cAMP reporter score in data set [1] (pH 5.5) was determined as 0.264; in data set [1] (pH 6), 0.894; in data set [1] (pH 6, modulator: ogerin) it was 0.227; in data set [1] (pH 6.5, modulator: ogerin) it was 0.373. Moreover, the surface expression score in data set [2] is 0.904.
For E166A the same measures were -0.591, 0.574, 0.049, 1.83 and -0.813.
With E166C, the cAMP reporter score was 0.148 in data set [1] (pH 5.5); -0.212 in data set [1] (pH 6); 0.296 in data set [1] (pH 6, modulator: ogerin); -0.523 in data set [1] (pH 6.5, modulator: ogerin). The surface expression score in data set [2] came to 0.162.
For E166H the same measures were -0.233, 0.308, -0.246, -0.083 and -0.184.
For E166N the same measures were 1.18, 0.714, 0.897, -0.053 and 1.52.
For E166Y the same measures were 0.421, -0.34, 0.2, -0.08 and 0.504.
For the variant E166R, the cAMP reporter score in data set [1] (pH 5.5) was 3.93; in data set [1] (pH 6, modulator: ogerin), -0.243; in data set [1] (pH 6.5, modulator: ogerin) it was -0.903. In data set [2], the surface expression score amounted to 0.66.
As for E166M, the cAMP reporter score is 0.188 in data set [1] (pH 5.5); -0.347 in data set [1] (pH 6); 0.837 in data set [1] (pH 6, modulator: ogerin); -0.287 in data set [1] (pH 6.5, modulator: ogerin). Besides, the surface expression score in data set [2] was 1.18.
In the same order, the values of E166D are -0.312, 0.216, 0.217, 0.227 and -0.464.
As to E166I, the cAMP reporter score is -0.45 in data set [1] (pH 5.5); -1 in data set [1] (pH 6); -0.959 in data set [1] (pH 6, modulator: ogerin); -0.764 in data set [1] (pH 6.5, modulator: ogerin). Also, the surface expression score in data set [2] is 0.12.
For E166L, the cAMP reporter score in data set [1] (pH 5.5) is -0.07; in data set [1] (pH 6), 0.044; in data set [1] (pH 6, modulator: ogerin), -0.224; in data set [1] (pH 6.5, modulator: ogerin) it was 0.313. In addition, the surface expression score in data set [2] was 0.309.
Regarding E166K, the cAMP reporter score in data set [1] (pH 5.5) is -0.404; in data set [1] (pH 6), -0.834; in data set [1] (pH 6, modulator: ogerin), -0.259; in data set [1] (pH 6.5, modulator: ogerin) it was -1.17. Besides, the surface expression score in data set [2] was 0.68.
In the case of E166G, the cAMP reporter score in data set [1] (pH 5.5) worked out at 1.36; in data set [1] (pH 6), 1.59; in data set [1] (pH 6, modulator: ogerin), 0.791; in data set [1] (pH 6.5, modulator: ogerin), 0.82.
On to N167_Q168insGSG, for which the cAMP reporter score in data set [1] (pH 5.5) was -0.855; in data set [1] (pH 6), -0.933; in data set [1] (pH 6, modulator: ogerin), -0.866; in data set [1] (pH 6.5, modulator: ogerin) it was -1.16. The surface expression score in data set [2] was 1.74.
For the variant D165P, the cAMP reporter score in data set [1] (pH 5.5) is -1.56; in data set [1] (pH 6.5, modulator: ogerin), -1. In addition, the surface expression score in data set [2] is -1.36.
With D165L, the cAMP reporter score in data set [1] (pH 5.5) is -0.806; in data set [1] (pH 6), -0.661; in data set [1] (pH 6, modulator: ogerin), -0.226; in data set [1] (pH 6.5, modulator: ogerin), -0.868. In addition, the surface expression score in data set [2] was 0.094.
Consider D165R, for which the cAMP reporter score was -0.688 in data set [1] (pH 5.5); 0.491 in data set [1] (pH 6); -0.728 in data set [1] (pH 6.5, modulator: ogerin). Also, the surface expression score in data set [2] turned out to be 0.33.
Take D165H: the cAMP reporter score was -0.196 in data set [1] (pH 5.5); 2.14 in data set [1] (pH 6); -0.622 in data set [1] (pH 6, modulator: ogerin).
As for D165W, the cAMP reporter score in data set [1] (pH 5.5) is 0.176; in data set [1] (pH 6), -1.8; in data set [1] (pH 6, modulator: ogerin), -0.794; in data set [1] (pH 6.5, modulator: ogerin), 0.083. In addition, the surface expression score in data set [2] worked out at 0.125.
In the same order, the values of D165Q are -0.493, -0.177, -0.493, -0.696 and 1.59.
For D165K the same measures were -0.726, -0.593, -1.69, -1.24 and 1.09.
In the same order, the values of D165Y are -0.504, -0.553, -0.77, -0.974 and 0.014.
Consider D165S, for which the cAMP reporter score in data set [1] (pH 5.5) was -1.25; in data set [1] (pH 6), -0.465; in data set [1] (pH 6, modulator: ogerin) it was -0.551; in data set [1] (pH 6.5, modulator: ogerin), -0.987. The surface expression score in data set [2] came to 1.3.
Regarding D165I, the cAMP reporter score was -0.073 in data set [1] (pH 5.5); -0.181 in data set [1] (pH 6); -0.438 in data set [1] (pH 6, modulator: ogerin); -0.856 in data set [1] (pH 6.5, modulator: ogerin). Also, the surface expression score in data set [2] is 1.58.
In the same order, the values of D165T are -1.26, -1.53, -1.09, -1.49 and -0.122.
With D165M, the cAMP reporter score in data set [1] (pH 5.5) is 0.672; in data set [1] (pH 6) it was -1.1; in data set [1] (pH 6, modulator: ogerin), 0.017; in data set [1] (pH 6.5, modulator: ogerin), -1.05. In addition, in data set [2], the surface expression score is 1.14.
